Experimental data taken from PubChem BioAssay AID686978 (National Center for Advancing Translational Sciences (NCATS), 2013).
Out of some 420,000 compounds screened, about 64,000 (15%) were called active. Inconclusive results, whose numbers are uncertain, are shown with a selection of clear calls. Calls come from the whole dose curve; as a rule, active = well fitted inhibition curve with a large enough effect; inconclusive = small, poorly fitted or top-dose-only effect; inactive = flat fitted curve, though single readings scatter. No potency is given beside an inconclusive call; the fits are too rough.

experiment: qHTS for Inhibitors of human tyrosyl-DNA phosphodiesterase 1 (TDP1): qHTS in cells in absence of CPT; conditions: DT40 Tdp1-/- hTDP1 cells, no CPT, ATP luminescence, 48 h; activity change, negative = growth inhibition: at 46.2 µM (top of the series) unless noted; note: nearly all actives have a fitted effect of over 55% in size
Summary of the method: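 Readout: luminescence from CellTiter-Glo after 30 min in the dark at RT. Cells: DT40 Tdp1-/- with stable hTDP1, 400/well. Exposure: compounds alone, ≥48 hr, 37 °C.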
% is set by controls: 0 for no effect and ±100 for the full control effect; potency is the fitted concentration of half-maximal effect; tags give direction and shape of the fitted curve.

Row | SMILES | Potency | activity change, negative = growth inhibition
1 | COc1cccc(-c2ccnc3[nH]n(-c4ccccc4)c(=O)c23)c1 | inconclusive [inhibitor, partial curve] | 
2 | CCN1CCN(c2ccc(S(=O)(=O)N3CCCCC3)cc2NC(=O)c2ccc(C)o2)CC1 | inconclusive [inhibitor, single point] | 
3 | COc1ccc(NC(=O)CSc2nnc3c(n2)[nH]c2ccc(S(=O)(=O)N(C)C)cc23)c(OC)c1 | inconclusive [inhibitor, single point] | 
4 | CCN(Cc1ccccc1)C(=O)CCS(=O)(=O)c1ccc2c(c1)oc(=O)n2C | inactive | 
5 | COc1ccc2c(c1)c(=O)c(C(=O)c1ccc(Cl)cc1)cn2CC(=O)Nc1ccc2c(c1)OCO2 |  | inactive: -16.9%
6 | Cc1ccc(-n2cccn2)c([C@@H]2C[C@H]3CN(C)C(=O)[C@]34CCCN24)c1 |  | inactive: -2.95%
7 | CC(C)(C)c1ccc(C(=O)Nc2ccc([N+](=O)[O-])cn2)cc1 |  | inconclusive: -31.7% [inhibitor]
8 | CCOC(=O)c1scc(-c2ccc(C)cc2)c1S(=O)(=O)Nc1ccc(F)c(F)c1 | inconclusive [inhibitor, partial curve] | 
9 | Cn1c(=O)n(CCCc2ccccc2)c(=O)c2c1nc1n2CCN1c1ccccc1 | active: 6.51 µM | 
10 | CCc1cc(OCCN(C)C)ccc1Cl |  | inactive: -4.59%
11 | COc1ccccc1CNC(=O)C(=O)NCCC1CCCCN1S(=O)(=O)c1ccccc1 (configuration not stated) | inconclusive [inhibitor, single point] | 
12 | O=C(NC(=S)Nc1ccc(CN2CCCCC2)cc1)c1cc2ccccc2o1 | active: 20.6 µM | 
13 | CC(C)(C)NC(=O)/C(=C\c1cccnc1)NC(=O)c1ccco1 |  | inactive: 5.31%
14 | Cc1cc(Cl)ccc1OCC(=O)NC(=S)Nc1ccc(Cl)cn1 |  | inactive: 30%
15 | CCc1ccc2c(c1)NC(=O)C2(C)Cc1ccccc1 (configuration not stated) | inconclusive [inhibitor, single point] | 
16 | CCOc1ccc(CCNC(=O)c2ccc3c(c2)N(Cc2cccc(Cl)c2)C(=O)c2ccccc2S3(=O)=O)cc1OCC | inconclusive [inhibitor, partial curve, poor fit] | 
17 | CCCCCn1c(N)c(C#N)c2nc3ccccc3nc21 | inconclusive [inhibitor, partial curve] | 
18 | O=C(CSc1nc2sc3c(c2c(=O)n1-c1ccccc1)CCCC3)NCc1ccco1 | inconclusive [inhibitor, single point] | 
19 | CCc1nc2ccc(C(=O)NCCOc3ccc(OC)cc3)cn2c1N(C)Cc1cccs1 | inconclusive [inhibitor, single point] | 
20 | CCOC(=O)c1ccc(NC(=O)CN2C(=O)CC(c3ccc(C)c(C)c3)=Nc3ccccc32)cc1 | inconclusive [inhibitor, single point] | 
21 | O=C(NC(=S)Nc1nc2c(ccc3ccccc32)s1)c1cccs1 | active: 14.6 µM | 
22 | CC(C)(C)OC(=O)N1CCC[C@H]1c1nnc(SCc2c(Cl)cccc2Cl)o1 | inconclusive [inhibitor, single point] | 
23 | CC(Sc1nnc(CN2CCCC2)n1Cc1ccccc1)C(=O)Nc1ccccc1 (configuration not stated) |  | inactive: -5.06%
24 | COCc1ccc(C(=O)N2CCN(CC(=O)N3CCCC3)CC2)cc1 |  | inactive: 0.444%

Row | SMILES | Potency | activity change, negative = growth inhibition
25 | Cc1ccccc1CNC(=O)/C=C\C(=O)O |  | inactive: 16.5%
26 | CCN(c1ccccc1)S(=O)(=O)c1cc(NC(=O)CN2CCN(C)CC2)ccc1Cl | inconclusive [inhibitor, single point] | 
27 | Nc1nc(N)nc(-c2cccc(Br)c2)n1 | inconclusive [inhibitor, single point] | 
28 | CCc1nc2oc3cc(OC)ccc3c(=O)c2c(=O)n1Cc1ccccc1 | inconclusive [inhibitor, partial curve] | 
29 | Cc1ccc(CSC2=NCCN2C(=O)c2ccc(S(=O)(=O)N(C)C)cc2)cc1 | inconclusive [inhibitor, single point] | 
30 | Cc1ccc(-n2nnc(-c3cc4ccccc4n3C)n2)cc1 |  | inactive: -1.54%
31 | COc1ccc(/C=N\Nc2ncc(F)c(N3CCOCC3)n2)cc1OC | inconclusive [inhibitor, single point] | 
32 | CCNc1ccc(Br)cc(C(=O)/C=C/c2c(Cl)cccc2Cl)c1=O | active: 4.61 µM | 
33 | CN1CCN(C(=O)c2ccc3c(=O)n(Cc4ccc5c(c4)OCO5)c(=S)[nH]c3c2)CC1 | active: 12.6 µM | 
34 | Cc1ccc(NC(=O)C(C)N2CCCC2)cc1Cl (configuration not stated) |  | inactive: -11.7%
35 | O=C(N/C=C/c1ccco1)Nc1cccc(Cl)c1 | inconclusive [inhibitor, single point] | 
36 | COc1ccccc1/C=C/CN1CCC(Oc2cc(C(=O)NC3CC3)ccc2OC)CC1 | active: 2.06 µM | 
37 | Cc1cc(C(=O)N/N=C/c2ccc(N3CCOCC3)cc2)c(C)o1 |  | inactive: -28.1%
38 | CCc1ccc(N2C(=O)CS(=O)(=O)C23C(=O)N(Cc2ccccc2F)c2ccccc23)cc1 (configuration not stated) | inconclusive [inhibitor, single point] | 
39 | COc1ccc(-n2nc(C(=O)NCC(=O)N3CCCCC3)c3ccccc3c2=O)cc1 | inconclusive [inhibitor, single point] | 
40 | CCOc1cc(C2c3c(oc4ccccc4c3=O)C(=O)N2Cc2ccccc2Cl)ccc1O (configuration not stated) |  | inconclusive: -15.1% [inhibitor]
41 | Cc1sc(NC(=O)COc2ccc(C(C)(C)C)cc2)c(C(=O)OC(C)C)c1C | inconclusive [inhibitor, single point] | 
42 | COCCn1c(=O)c(-c2cccc(C#N)c2)nc2cnc(N3CCOCC3)nc21 |  | inactive: -1.03%
43 | Cc1ccnn1-c1ccc(C(=O)NCC(c2ccco2)N2CCCC2)cc1 (configuration not stated) |  | inactive: 2.46%
44 | CCn1c(SCC(=O)Nc2ncc(C(F)(F)F)cc2Cl)nnc1-c1ccccc1 |  | inactive: -4.24%
45 | O=C(/C=C/c1ccc(Cl)cc1)N(Cc1cccs1)C1CCS(=O)(=O)C1 (configuration not stated) | inconclusive [inhibitor, single point] | 
46 | COc1ccc(CC(=O)Nc2cc(NC(=O)Cc3ccc(OC)c(OC)c3)cc(C(=O)O)c2)cc1OC |  | inactive: -15.2%
47 | CCn1cc(C(=O)N2CCN(c3ccccc3)CC2)c(=O)c2cc(S(=O)(=O)N3CCC(C)CC3)ccc21 |  | inactive: -22%
48 | COc1ccc(C2CC(=O)c3c([nH]c(C(=O)OCCOc4ccccc4)c3C)C2)cc1OC (configuration not stated) | inconclusive [inhibitor, full curve] | 

Row | SMILES | Potency | activity change, negative = growth inhibition
49 | COc1cccc(CNC(=O)c2cccn2-c2nnc(N3CCCC3)s2)c1 | inconclusive [inhibitor, single point] | 
50 | CCOc1ccc(N2C(=O)CC(N3CC(C)OC(C)C3)C2=O)cc1 (configuration not stated) |  | inactive: 1.38%
51 | CCN1CCN(C(=O)c2cnn(-c3cccc(C)c3)c2C2CCN(C(=O)OC(C)(C)C)CC2)CC1 | inconclusive [inhibitor, single point] | 
52 | Cc1ccccc1C(=O)Nc1ccccn1 |  | inactive: -16.9%
53 | Cc1cccc(Nc2nc(-c3c(C)nc4ccccn34)cs2)c1 | active: 11.2 µM | 
54 | C#CC[N+](C)(C)CC#Cc1ccc(C)cc1 |  | inactive: -5.95%
55 | COc1ccc(CN2C(=O)C(CC(=O)NCc3ccco3)CC(C(=O)N3CCOCC3)=C2C)cc1 (configuration not stated) | inconclusive [inhibitor, full curve, poor fit] | 
56 | COc1cc(-c2noc(-c3cc(C)[nH]n3)n2)cc(OC)c1OC | inconclusive [inhibitor, single point] | 
57 | O=C(COc1ccc2ccccc2c1)Nc1ccccc1C(=O)O | inconclusive [inhibitor, single point] | 
58 | Cc1ccc(Nc2ncnc3nc[nH]c23)cc1Cl |  | inactive: -22.6%
59 | CCCCOc1ccc(C2/C(=C(/O)c3ccc4c(c3)CC(C)O4)C(=O)C(=O)N2CCCN2CCOCC2)cc1OC (configuration not stated) | inconclusive [inhibitor, single point] | 
60 | COc1ccc(NC(=O)N(Cc2ccco2)C2CCN(C(C)=O)CC2)c(OC)c1 |  | inconclusive: -30.7% [inhibitor]
61 | Cc1cc(C)c2cc(CN(CCN3CCCC3)C(=O)Nc3ccc(F)cc3)c(=O)[nH]c2c1 | active: 20.6 µM | 
62 | Cc1ccc2nc(-c3ccc(Cl)cc3)c(Cc3ccccn3)n2c1 | active: 16.4 µM | 
63 | Cc1c(Br)c([N+](=O)[O-])nn1CC(=O)Nc1ccc(C(C)C)cc1 | inconclusive [inhibitor, single point] | 
64 | CC1=C(C#N)C(c2cccnc2)C2=C(CC(C)(C)CC2=O)N1 (configuration not stated) |  | inactive: 0.349%
65 | N#C/C(=C\c1ccccc1C(F)(F)F)C(=O)Nc1ccccc1F | inconclusive [inhibitor, single point] | 
66 | COCCNC(=O)C1CCCN(C(=O)c2ccc3ccccc3n2)CC1 (configuration not stated) |  | inactive: -2.83%
67 | O=C(Nc1cccc(-c2cn3ccccc3n2)c1)c1cccs1 |  | inconclusive: -30.1% [inhibitor]
68 | CCCc1ccc(NC(C)C(=O)Nc2ccc(S(=O)(=O)N3CCOCC3)cc2)cc1 (configuration not stated) | inconclusive [inhibitor, single point] | 
69 | COc1ccc(-c2nc(-c3ccccc3)nc(N3CCN(C)CC3)c2C#N)cc1 | inconclusive [inhibitor, single point] | 
70 | NC(=O)[C@H]1CC2(CC(c3cccc(NC(=O)COc4ccc(Cl)cc4)c3)=NO2)CN1C(=O)Cc1ccc([N+](=O)[O-])cc1 (some centres not stated) | active: 16.4 µM | 
71 | Cc1ccc(-c2noc(C3CC(=O)N(c4ccc5c(c4)OCCO5)C3)n2)cc1 (configuration not stated) |  | inactive: -5.37%
72 | Cc1cc(NC(=O)Nc2ccc(N(C)C)cc2)c2cc(F)cc(F)c2n1 | inconclusive [inhibitor, partial curve, poor fit] | 
